The whole screen tested about 310,000 compounds, of which about 14,000 (4.5%) showed an effect of 50% or more. The effect is printed as a negative number. The list shows a part of the results.
Target: human ether-à-go-go-related gene (hERG) potassium channel (human, UniProt Q12809)
Experiment: primary screen, population patch clamp on CHO cells stably expressing hERG
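Further: peak tail current of the secondary pulse compared with the same well before compound.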

human ether-à-go-go-related gene (hERG) potassium channel, sequence (Q12809 whole entry, looked up): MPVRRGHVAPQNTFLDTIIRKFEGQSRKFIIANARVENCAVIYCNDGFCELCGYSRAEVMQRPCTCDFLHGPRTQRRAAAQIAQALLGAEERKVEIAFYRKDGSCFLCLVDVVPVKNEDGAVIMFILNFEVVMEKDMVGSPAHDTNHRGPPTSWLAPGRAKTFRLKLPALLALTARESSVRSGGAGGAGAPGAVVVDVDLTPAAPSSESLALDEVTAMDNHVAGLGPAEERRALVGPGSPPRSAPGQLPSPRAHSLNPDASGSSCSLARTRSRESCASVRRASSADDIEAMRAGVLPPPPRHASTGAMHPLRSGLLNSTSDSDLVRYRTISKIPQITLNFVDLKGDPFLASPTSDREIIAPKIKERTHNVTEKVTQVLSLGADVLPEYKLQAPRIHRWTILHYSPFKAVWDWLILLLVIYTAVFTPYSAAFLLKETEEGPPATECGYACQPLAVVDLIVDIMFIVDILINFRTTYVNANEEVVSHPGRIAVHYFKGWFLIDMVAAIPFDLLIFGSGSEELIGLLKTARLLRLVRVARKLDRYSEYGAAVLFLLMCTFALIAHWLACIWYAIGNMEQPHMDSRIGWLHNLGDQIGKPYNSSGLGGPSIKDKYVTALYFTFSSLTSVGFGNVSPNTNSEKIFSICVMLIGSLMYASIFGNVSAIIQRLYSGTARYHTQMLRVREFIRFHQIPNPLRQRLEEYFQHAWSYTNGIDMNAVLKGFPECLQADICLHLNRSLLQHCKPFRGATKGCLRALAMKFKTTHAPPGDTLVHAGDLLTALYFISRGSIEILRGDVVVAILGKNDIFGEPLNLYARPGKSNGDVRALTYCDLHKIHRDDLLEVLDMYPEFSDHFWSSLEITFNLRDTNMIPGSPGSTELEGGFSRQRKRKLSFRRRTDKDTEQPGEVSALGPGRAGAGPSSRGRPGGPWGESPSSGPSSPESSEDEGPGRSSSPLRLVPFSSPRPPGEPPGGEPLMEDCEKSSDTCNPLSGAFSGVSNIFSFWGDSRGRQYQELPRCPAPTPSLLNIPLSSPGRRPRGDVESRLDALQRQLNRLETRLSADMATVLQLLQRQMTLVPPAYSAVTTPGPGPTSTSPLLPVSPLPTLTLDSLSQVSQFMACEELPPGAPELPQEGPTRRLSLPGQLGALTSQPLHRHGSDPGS

Structure (SMILES) | hERG current change (%, negative = inhibition) at 10uM
COc1ccc(-c2cc(C(=O)N/N=C/c3cccnc3)c3ccccc3n2)c(OC)c1 | -25.5%
CCC(CC)C(=O)NCCCN1CCOCC1 | 12.3%
CC(OC(=O)C1CCN(S(=O)(=O)c2ccc(C(C)(C)C)cc2)CC1)C(=O)N1CCOCC1 (stereo not drawn) | -28%
CCCc1cc2c(cc1NC(=O)c1ccccc1C)OCO2 | 4.9%
O=C(CSc1nc2cc(C(=O)O)ccc2c(=O)n1-c1ccc(F)cc1)Nc1ccc(F)c(F)c1F | 1.54%
CC1CC1C(=O)N1CCN(S(=O)(=O)c2cc(C(F)(F)F)cc(C(F)(F)F)c2)CC1 (stereo not drawn) | -35.4%
C[N+]12CCCCC1[C@@H](CO)CCC2.[Br-] (stereo partly drawn) | 11.1%
Cc1ccc(C2=NNC(=O)C(P(=O)(c3ccccc3)c3ccccc3)C2)cc1 (stereo not drawn) | 22.4%
CC1(C)O[C@@H]2[C@H](O1)[C@@H](COS(=O)(=O)[O-])O[C@H]2n1c(=S)[nH]c2c(=O)[nH]c(N)nc21.[K+] | 19.1%
Cc1nnc(SCC(=O)c2c(N)n(C3CC3)c(=O)[nH]c2=O)n1-c1ccccc1 | 5.53%
COc1ccc(/C(C)=N/OCC(=O)N2CC3(C)CC2CC(C)(C)C3)cc1 (stereo not drawn) | -11.6%
CN(CC(=O)Nc1cccc(F)c1)CC(=O)N(C)CC(=O)Nc1ccccc1Br | -13.7%
C/C(=N/NC(=O)CNC(=O)c1ccccc1F)c1ccc2c(c1)CCCC2 | -10.7%
CCOc1ccc(S(=O)(=O)NCC2CCCO2)c2cccnc12 (stereo not drawn) | 8.01%
O=S(=O)(c1ccc(SCc2ccc(Br)cc2)nc1)N1CCOCC1 | 4.88%
Cc1ccc(CNC(=O)CCC(=O)N2CC(C)Oc3ccccc32)cc1 (stereo not drawn) | -28%
Cc1sc2ncnc(N3CCC(C(=O)Nc4sc5c(c4C(N)=O)CCC(C)C5)CC3)c2c1C (stereo not drawn) | -2.24%
O=C(CS(=O)(=O)Cc1ccccc1)Nc1nc2ccccc2s1 | -10.2%
O=C(NC12CC3CC(CC(C3)C1)C2)N1CCC(n2nnc3ccccc32)CC1 | 2.67%
CCN1C(=NCCOC)N[C@@H](CCc2ccccc2)[C@H](C(=O)OC)[C@H]1C | -1.21%
O=C1NC(=O)C2(Cc3c(nc4ccccn4c3=O)N3CCCCCC32)C(=O)N1Cc1ccccc1 (stereo not drawn) | -31.3%
CC(=O)NC1=NN(C(C)=O)C(c2ccc(C(C)C)cc2)S1 (stereo not drawn) | 5.12%

Structure (SMILES) | hERG current change (%, negative = inhibition) at 10uM
CCOC(=O)c1[nH]c(C)c(C(=O)NC(C)(C)C)c1C | -0.859%
COC(=O)c1ccc(/C=C/c2ccc3cccc(OC(C)=O)c3n2)cc1 | 4.18%
CCCCc1cc(=O)oc2c(CN(C)C)c(O)ccc12 | -37.9%
CC(C)(C)C(=O)NNc1nc(-c2ccccc2)c2cc(Br)ccc2n1 | -0.33%
O=C(CSc1ccc(-c2ccccc2)nn1)c1ccccc1 | -5.17%
O=C(Cn1nnc(-c2ccc(CN3CCOCC3)cc2)n1)Nc1nc(-c2ccccc2)cs1 | -3.24%
Cc1ccc(-c2csc(NC(=O)c3cccc(S(=O)(=O)N4CCN(C)CC4)c3)n2)cc1 | -4.09%
CC1(C)CC(OC(=O)c2ccccc2)CC(C)(C)N1 | 9.14%
COC(=O)c1nc(NC2=NCCCCC2)n[nH]1 | 9.79%
COc1cc(O)c(C(CCN2CCCCC2)c2ccc3c(c2)OCO3)c(OC)c1 (stereo not drawn) | -78.3%
COc1ccc(C(=O)Nc2cc(OC)ccc2OC)cc1 | 7.17%
CCS(=O)(=O)c1ccc(NC(=O)c2ccccc2Cl)c(O)c1 | 2.25%
COc1ccccc1NS(=O)(=O)c1cc(NC(=O)c2ccc3c(c2)OCCO3)ccc1C | 4.37%
CCOc1ccccc1C(=O)NCC(=O)Nc1ccc2c(c1)OCO2 | 9.91%
COc1ccc2nc(C)cc(N/N=C/c3ccccc3)c2c1 | -17.1%
O=c1[nH]c2cc3c(cc2cc1C(c1nnnn1CC1CCCO1)N1CCCC1)OCO3 (stereo not drawn) | 15%
Nc1c(S(=O)(=O)c2ccccc2)c2nc3ccccc3nc2n1/N=C/c1cccc(O)c1 | 2.33%
COC(=O)C1CSC(c2ccc(Cl)cc2)N1C(=O)c1ccccc1 (stereo not drawn) | -47.1%
CCN(CC)CCOC(=O)c1ccccc1Br.Cl | 0.452%
CCc1cccc2c(C(=O)COC(=O)/C=C/c3ccccc3OC)c[nH]c12 | -16%
CCCc1cnc(N2CCN(S(=O)(=O)c3cccs3)CC2)nc1 | 6.53%
O=C(O)c1ccc(NC(=O)c2cccc(NC(=O)c3cccs3)c2)cc1 | -6.21%

Structure (SMILES) | hERG current change (%, negative = inhibition) at 10uM
COC(=O)c1c(C)[nH]c(C(=O)OCC(=O)N2c3ccccc3NC(=O)C2(C)C)c1C | -15.1%
O=C(COC(=O)c1sc2ccccc2c1Cl)Nc1ncc(Cl)cc1Cl | -0.251%
CC1CCN(S(=O)(=O)c2ccc3c(c2)C(=NO)c2cc(S(=O)(=O)N4CCC(C)CC4)ccc2-3)CC1 | 8.19%
Cc1cc(NC(=O)Nc2c[nH]c(=O)[nH]c2=O)ccc1Br | 16.4%
COc1ccc(NC(=S)Nc2cccnc2)c(OC)c1 | 8.2%
COc1ccccc1NC(=O)C1=C(C)NC2=C(C(=O)CCC2)C1c1ccc2c(c1)OCO2 (stereo not drawn) | -17.7%
O=[N+]([O-])c1cc(Br)c(Nc2ccccc2)c([N+](=O)[O-])c1 | 8.13%
Cc1cc(OCC(=O)NCc2ccncc2)c2c(C)c(C)c(=O)oc2c1 | -40.6%
O=C(NCCCn1ccnc1)C(=O)NCC(c1cccnc1)N1CCN(c2ccc(F)cc2)CC1 (stereo not drawn) | -2.97%
COc1ccccc1NC(=O)CSc1nnc(-c2ccccn2)o1 | 12.7%
CC(CCc1ccccc1)NC(=O)COc1ccc(S(=O)(=O)N2CCOCC2)cc1[N+](=O)[O-] (stereo not drawn) | -24.8%
c1cnc2c(OCc3cn4cccnc4n3)cccc2c1 | 11.4%
CCCCc1nc(C(N)=O)c2[nH]c(=O)n(-c3ccc(OCC)cc3)c2n1 | -4.95%
CC(=O)Nc1ccc(S(=O)(=O)N2C(=O)c3cccc4cccc2c34)cc1 | -9.5%
CCN1CCN(S(=O)(=O)c2ccc(Cl)c(C(=O)N(C)Cc3cccs3)c2)CC1 | -14.6%
CCOc1ccc(N=Nc2c(=O)[nH]n3c(=O)cc(C)[nH]c23)cc1 | -7.81%
CC(=O)N1CCN(C(=O)c2ccc(OC3CCN(Cc4ccccn4)CC3)cc2)CC1 | 17.9%
Cc1nc(Nc2ccccc2C(F)(F)F)sc1C(=O)N(C)C | 21.7%
Cc1ccc([N+](=O)[O-])c(OCCCNCC(C)O)c1.O=C(O)C(=O)O (stereo not drawn) | 2.13%
Cc1cc(NC(=O)CC2CCCC2)ccc1Br | 7.51%
COc1ccc(-c2cc(C(=O)NCCCN3CCOCC3)c3cc(C(C)C)ccc3n2)cc1 | -3.68%
O=C(NCc1cccnc1)C1CC(c2cccc(Br)c2)=NO1 (stereo not drawn) | -1.37%

Structure (SMILES) | hERG current change (%, negative = inhibition) at 10uM
Cc1cccc(N2CCN(c3ccc4cc(S(=O)(=O)N5CCCCC5)ccc4n3)CC2)c1C | 18.2%
CC(=O)/C=C1\N(C)c2ccc(C)cc2C1(C)C | 4.27%
COc1cccc(/C=N/NC(=O)NC2CCCCC2)c1O | 3.19%
COC(=O)c1nn(-c2ccccc2)c(Cl)c1/C=N/O | 9.89%
CCOc1ccc(CC(=O)Nc2ccc(S(=O)(=O)Nc3cc(C)on3)cc2)cc1OCC | 11.7%
COc1cccc(-c2nn(-c3ccccc3)cc2CN(C)C(C)c2ccon2)c1 (stereo not drawn) | -2.83%
COc1ccc(/C(N)=N/OC(=O)N2CCOCC2)cc1 | -28.8%
Cl.O=C(NCCCn1ccnc1)c1ccc(F)cc1 | -2.81%
CC(C)c1[nH]nc2c1C(c1cccs1)C(C#N)=C(N)O2 (stereo not drawn) | 16%
CCOc1ccc(NC(=O)CCNc2c(N3CCCC3)c(=O)c2=O)cc1 | 10.8%
COC(=O)c1ccc(OC(=O)CCS(=O)(=O)c2ccc(C)cc2)cc1 | -16.4%
NNC(=O)c1ccc(S(=O)(=O)N2CCc3ccccc32)cc1 | 14.7%
O=C(Nc1cccc(C(F)(F)F)c1)c1ccc(Cn2cc(Br)cn2)o1 | -26.3%
Cn1c(N)c(C(=O)Nc2ccccc2)c(=O)[nH]c1=O | 8.83%
O=C(NNC(=O)c1cc(Cl)ccc1[N+](=O)[O-])c1csc(N2CCOCC2)n1 | 10.5%
CCc1ccccc1-n1nnc(-c2ccccc2)n1 | -0.113%
Cc1cc(SCC(=O)NCCN2C(=O)CSC2=O)nc2ccccc12 | 7.59%
CCC(C)NC(=O)Cn1c(COc2ccc(Cl)cc2Cl)nc2ccccc21 (stereo not drawn) | 12%
CCC1CCCCN1C(=O)CSc1nc(N)c(NC(=O)c2ccc(OC)c(OC)c2)c(=O)[nH]1 (stereo not drawn) | 4.63%
CCCCNC(=O)c1ccc(NS(=O)(=O)c2ccccc2)cc1 | 11.1%
CCC(CO)NCc1cc(OC)c(OCC(=O)NCCc2ccccc2)cc1Br (stereo not drawn) | -19.4%
